# Test results as given in the antibiotic and cytotoxicity screens of Wong et al. (2023).
# The other results are listed elsewhere or left out.
# What was measured:
# HSkMC = human skeletal muscle cells; assay: cytotoxicity call (relative viability < 0.9); conditions: 10 µM
# HepG2 = assay: cytotoxicity call (relative viability < 0.9); conditions: 10 µM
# S. aureus RN4220 = assay: growth inhibition call (relative growth <= 0.2); conditions: 50 µM
Compound,cytotoxicity call (HSkMC),cytotoxicity call (HepG2),growth inhibition call (S. aureus RN4220)
C[C@@H]1CN([C@H](C)CO)C(=O)c2cc(NC(=O)CCCCCC(=O)Nc3ccccc3N)ccc2O[C@H]1CN(C)S(=O)(=O)c1cn(C)cn1,inactive,inactive,inactive
C[C@@H]1CN([C@@H](C)CO)C(=O)c2cc(NC(=O)Nc3ccc4c(c3)OCO4)ccc2O[C@@H](C)CCCCO[C@H]1CN(C)Cc1ccc(Cl)c(Cl)c1,inactive,inactive,inactive
CN1CCN(C(=O)[C@H]2[C@H](CO)[C@H]3Cn4c(ccc(C5=CCCC5)c4=O)[C@@H]2N3S(C)(=O)=O)CC1,inactive,inactive,inactive
COC(=O)[C@@H](O)c1ccccc1,inactive,inactive,inactive
CC(C)NCC(O)c1cc(O)cc(O)c1 (stereo not drawn),inactive,active,inactive
Cc1ccccc1S(=O)(=O)N1C[C@@H](O)COC[C@H]2O[C@@H](CC(=O)NCCc3ccccc3)CC[C@@H]21,inactive,inactive,inactive
